Measurements: the supplement of paper PMC9174493
Some of the results follow. Single values of this set are uncertain. Values with irradiation are relative to irradiated vehicle.

Test system: A549-Dual
Assay: ISRE reporter (Lucia luciferase) activity, viability-corrected, relative to vehicle (fold change vs vehicle); higher = more activation of STING-IRF / NF-kB immune response reporter
Conditions: 10 µM; irradiation: 8 Gy/4 fr

Compound	ISRE reporter
O=C(CO)C(O)C(O)C(O)CO (centres undefined) [Fructose]	0.724
NCC1OC(OC2C(N)CC(N)C(O)C2OC2OC(CO)C(O)C2O)C(N)C(O)C1O.O=S(=O)(O)O (centres undefined) [Ribostamycin Sulfate]	0.812
Cl.O=C(O)c1cn(-c2ccc(F)cc2)c2cc(N3CCNCC3)c(F)cc2c1=O [Sarafloxacin HCl]	0.885
CC(O)C1C(=O)N2C(C(=O)[O-])=C(SC3Cn4cnc[n+]4C3)C(C)C12 (centres undefined) [Biapenem]	0.837
OC(Cn1cncn1)(Cn1cncn1)c1ccc(F)cc1F [Fluconazole]	0.713
CCCC1CC(C(=O)NC(C(C)Cl)C2OC(SC)C(O)C(O)C2O)N(C)C1 (centres undefined) [Clindamycin]	0.698
CC(C)(O/N=C(/C(=O)NC1C(=O)N2C(C(=O)[O-])=C(C[n+]3ccccc3)CSC12)c1csc(N)n1)C(=O)O.O.O.O.O.O (centres undefined) [Ceftazidime Pentahydrate]	1.02
Cc1ccc(=O)n(-c2ccccc2)c1 [Pirfenidone]	0.751
CN(C)CCCN1c2ccccc2Sc2ccccc21.Cl [Promazine hydrochloride]	0.99
Nc1cc[nH]c(=O)n1 [Cytosine]	0.913
COC(=O)C1CC2=CC(=O)CCC2(C)C23OC2CC2(C)C(CCC24CCC(=O)O4)C13 (centres undefined) [Eplerenone]	0.707
Cc1ccc2c(Cl)cc(Cl)c(O)c2n1 [Chlorquinaldol]	0.356
NC1CONC1=O [L-Cycloserine]	0.893
CC12CC3CC(C)(C1)CC(N)(C3)C2.Cl [Memantine HCl]	0.897
O=c1n(CCCN2CCN(c3cccc(Cl)c3)CC2)nc2ccccn12 [Trazodone]	0.958
CCCc1ncc(C[n+]2ccccc2C)c(N)n1.Cl.[Cl-] [Amprolium HCl]	0.86
O=CC(O)C(O)C(OC1OC(CO)C(O)C(O)C1O)C(O)CO (centres undefined) [Maltose]	1.04

Compound	ISRE reporter
C=C1C2CCC(C2)C1(C)C (centres undefined) [Camphene]	0.861
Cl.Cl.N=C(NCCCCCCNC(=N)NC(=N)Nc1ccc(Cl)cc1)NC(=N)Nc1ccc(Cl)cc1 [Chlorhexidine?2HCl]	1.79
COc1cc(N)c(Cl)cc1C(=O)NC1CCN(CCCOc2ccc(F)cc2)CC1OC (centres undefined) [Cisapride]	0.671
CCN(CC)CC(=O)Nc1c(C)cccc1C [Lidocaine]	0.577
CC1OC(OC2C(CO)OC(OCC3OC(OC(=O)C45CCC(C)(C)CC4C4=CCC6C7(C)CCC(OC8OCC(O)C(O)C8OC8OC(C)C(O)C(O)C8O)C(C)(CO)C7CCC6(C)C4(C)CC5)C(O)C(O)C3O)C(O)C2O)C(O)C(O)C1O (centres undefined) [Hederacoside C]	0.766
COC(=O)Nc1nc2cc(C(=O)c3ccccc3)ccc2[nH]1 [Mebendazole]	0.141
CN1CCC(=C2c3ccccc3CC(=O)c3sccc32)CC1.O=C(O)/C=C/C(=O)O [Ketotifen Fumarate]	0.847
CCOC(=O)C(CCc1ccccc1)NC(C)C(=O)N1C(C(=O)O)CC2CCCC21 (centres undefined) [Ramipril]	0.972
CS(=O)(=O)Nc1ccc([N+](=O)[O-])cc1Oc1ccccc1 [Nimesulide]	0.515
CCC1C(O)C2C3CCC(C(C)CCC(=O)O)C3(C)CCC2C2(C)CCC(O)CC12 (centres undefined) [Obeticholic Acid]	0.546
OCCc1ccccc1 [Phenethyl alcohol]	0.771
CCCCc1nc(Cl)c(CO)n1Cc1ccc(-c2ccccc2-c2nnn[nH]2)cc1.[KH] [Losartan Potassium (DuP 753)]	0.592
CCC(=O)OC1(C(=O)CCl)C(C)CC2C3CCC4=CC(=O)C=CC4(C)C3(F)C(O)CC21C (centres undefined) [Clobetasol propionate]	0.136
Clc1ccc(C(Cn2ccnc2)OCc2ccsc2Cl)c(Cl)c1 (centres undefined) [Tioconazole]	0.294
CCN1CC(CCN2CCOCC2)C(c2ccccc2)(c2ccccc2)C1=O.Cl.O (centres undefined) [Doxapram HCl]	0.72
C1CNCCN1.CC12CCC3c4ccc(OS(=O)(=O)O)cc4CCC3C1CCC2=O (centres undefined) [Estropipate]	0.659
O=c1c(O)c(-c2ccc(O)cc2O)oc2cc(O)cc(O)c12 [Morin]	0.273
